Experimental data: PubChem BioAssay (Tox21)
Values joined by “and” are separate entries in the source; they are usually repeats but may differ in a detail not shown here. Identical values can stand only once. The inconclusive results got no clear call from the source; some entries with a clear call stand among them for comparison. Where the call is inconclusive, the potency comes from a doubtful curve fit. Active and inactive are the calls of the source. Calls come from the whole dose curve; as a rule, active = well fitted cell-killing curve with a large enough effect in the repeat runs; inconclusive = weak or mixed curves, or effect the other way; inactive = flat fitted curve, though single readings scatter.

experiment: Human pregnane X receptor (PXR) small molecule agonists, qHTS cell viability counter screen (AID 1346977); settings: PXR-Luc HepG2 viability, CellTiter-Fluor, 24 h; series mostly up to 92.4 µM; activity change, negative = cytotoxicity: at the top concentration; note: nearly all actives have a fitted effect of over 50% in size
How it was run: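 Measures live-cell protease fluorescence (CellTiter-Fluor) in PXR-Luc HepG2 cells treated 24hr with compounds at 37C. Cells had 5hr to attach before pin transfer of DMSO solutions.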
% is set by controls: 0 for no effect and ±100 for the full control effect; potency is the fitted concentration of half-maximal effect; tags give direction and shape of the fitted curve.

| Structure (SMILES) | activity change, negative = cytotoxicity | Potency |
| --- | --- | --- |
| O=C(O)c1cccc(Cl)n1 | inactive: -10.2% | – |
| C/C(=C(/OCCOc1ccc(Cl)cc1)c1ccc(Cl)cc1Cl)n1ccnc1 | – | inconclusive: 29.8 µM [cytotoxic] |
| CN1CCC(=C2c3ccccc3C=Cc3ccccc32)CC1 | – | inconclusive: 29.8 µM [cytotoxic, partial curve] |
| C[C@H]1[C@H]2CC[C@H]3[C@@H]4CC=C5C[C@@H](N(C)C)CC[C@]5(C)[C@H]4CC[C@]23CN1C | – | inconclusive: 13.3 µM [cytotoxic, partial curve] |
| Cc1ccc(CCn2c3c(c4cc(Cl)ccc42)CN(C)CC3)cn1 | – | inconclusive: 29.8 µM [cytotoxic, partial curve] |
| CC(=O)c1ccccc1 | – | inactive |
| CCN(CC)CCSC(=O)C(c1ccccc1)c1ccccc1 | – | inconclusive: 33.5 µM [cytotoxic, partial curve, poor fit] |
| COc1ccccc1Oc1c(NS(=O)(=O)c2ccc(C(C)(C)C)cc2)nc(-c2ncccn2)nc1OCCO | – | inconclusive: 33.5 µM [cytotoxic, single point] |
| CCCCC/C=C\C/C=C\CCCCCCCC(=O)NC(C)c1ccccc1 (centres undefined) | inactive: -14.6% [at 42.5 µM] | – |
| CN1CCC(=C2c3ccccc3CCc3sccc32)CC1 | – | inconclusive: 26.6 µM [cytotoxic, partial curve] |
| CCN(CCCc1ccccc1)CCCc1ccccc1 | – | inconclusive: 21.1 µM [cytotoxic, partial curve, poor fit] |
| CCCCc1cc2ccccc2c(OCCN(C)C)n1 | – | inconclusive: 29.8 µM [cytotoxic, single point] |
| CCc1oc2ccccc2c1C(=O)c1cc(I)c(O)c(I)c1 | – | inconclusive: 33.5 µM [cytotoxic, single point] |
| Cc1ccccc1N=Nc1ccc(N=Nc2c(O)ccc3ccccc23)c(C)c1 | – | inconclusive: 13.3 µM [cytotoxic, single point] |
| C=CCOC(=O)/C=C\C(=O)OCC=C | inactive: 0.213% | – |
| NC=O | – | inconclusive: 68.6 µM [rising, single point] |
| O=S(=O)(O)c1ccccc1/C=C/c1ccc(-c2ccc(/C=C/c3ccccc3S(=O)(=O)O)cc2)cc1 | – | inconclusive: 49.2 µM [rising, partial curve] |
| Cc1oc(-c2ccccc2)nc1CCOc1cccc2c1ccn2CCC(=O)O | – | inconclusive: 30.6 µM [cytotoxic, partial curve] |
| CCCCCCCC#N | – | inconclusive: 68.6 µM [cytotoxic, single point] |
| CCCN(CCc1cccs1)[C@H]1CCc2c(O)cccc2C1 | – | inconclusive: 33.5 µM [cytotoxic] |

| Structure (SMILES) | activity change, negative = cytotoxicity | Potency |
| --- | --- | --- |
| CCCOC(=O)c1cc(O)c(O)c(O)c1 | – | inconclusive: 70.8 µM [cytotoxic, single point] and inconclusive: 61.1 µM [cytotoxic, single point] |
| CC(N)CCCC(C)(C)O (centres undefined) | inactive: 10.2% [at 42.5 µM] | – |
| OC[C@H]1O[C@@H](O[C@@H]2[C@@H](CO)O[C@](O)(CO)[C@H]2O)[C@H](O)[C@@H](O)[C@H]1O | inactive: -1.62% [at 42.5 µM] | – |
| O=C(Nc1ccc(Oc2ccc(Cl)cc2)c(Cl)c1)c1cc(I)cc(I)c1O | – | inconclusive: 33.5 µM [cytotoxic, single point] |
| O=[N+]([O-])c1ccc(O)cc1 | – | inconclusive: 68.6 µM [cytotoxic, single point] |
| CCOC(=O)c1ccc(OC(=O)CCCCCN=C(N)N)cc1 | inactive: 12.2% [at 42.5 µM] | – |
| CN1CCC(N(Cc2cccs2)c2ccccc2)CC1 | – | inconclusive: 26.6 µM [cytotoxic, partial curve] |
| COc1cc(C(C)C)c2c(c1)S(=O)(=O)N(COc1cc(=O)n3cccc(OCCN4CCCCC4)c3n1)C2=O | – | inconclusive: 13 µM [cytotoxic] |
| CC(C)OC=O | – | inconclusive: 70.8 µM [cytotoxic, single point] |
| C[C@@H]1C[C@H]2O[C@@]3(O[C@@H]2C(C)(C)O)[C@H](O)[C@@]2(C)[C@@H]4CC[C@H]5C(C)(C)[C@@H](O[C@@H]6OC[C@@H](O)[C@H](O)[C@H]6O)CC[C@@]56C[C@@]46CC[C@]2(C)[C@@H]13 | inactive: -6.74% [at 42.5 µM] | – |
| COC(=O)C1=C(C)NC(C)=C(C(=O)O[C@@H]2CCCN(Cc3ccccc3)C2)[C@@H]1c1cccc([N+](=O)[O-])c1 | – | inconclusive: 29.8 µM [cytotoxic] |
| CCCCOc1ccc(C(=O)CCN2CCCCC2)cc1 | – | inconclusive: 33.5 µM [cytotoxic, single point] |
| NNc1nc(-c2ccc(N)cc2)cs1 | – | inconclusive: 68.6 µM [cytotoxic, single point] |
| Oc1ccc(CCNCCCCCCNCCc2ccccc2)cc1O | – | inconclusive: 21.1 µM [cytotoxic, partial curve] |
| O=C(N/N=C/c1ccc([N+](=O)[O-])o1)c1ccc(O)cc1 | – | active: 10.6 µM |
| Cc1cccc(C(C)(C)C)c1O | inactive: -2.52% | – |
| Cc1ccc(O)c(N)c1 | – | inconclusive: 68.7 µM [cytotoxic, single point] |
| CCOC(=O)C1=C[C@]2(CC)CCCN3CCc4c(n1c1ccccc41)[C@@H]32 | – | active: 26.6 µM |
| O=C1OCCN1/N=C/c1ccc([N+](=O)[O-])o1 | – | inconclusive: 29.8 µM [cytotoxic] |
